# Measured values as given in a collection of fitness landscapes (doi:10.1016/j.celrep.2020.107928).
# The full ranking holds about 81,000 sequences; the median of “one-hybrid fitness for binding NBS DNA” is about -0.1, and the highest 2% start at about 0.36. The list shows a part of the results.
# B1: Caulobacter ParB omega fusion; a variant is named by its letters at X, in order, B8GW30 (parent)
# chain: MESVVVGEPGMSEGRRGLGRGLSALLGEVDAAPAQAPGEQLGGSREAPIEILQRNPDQPRRTFREEDLEDLSNSIREKGVLQPILVRPSPDTAGEYQIVAGERAWRAAQRAGLKTVPIMVRELDDLAVLEIGIIENVQRADLNVLEEALSYKVLMEKFERTQENIAQTIGKSXSHVANXMRLLXLPDEVQSYLVSGELTAXHARAIAAAADPVALAKQIIEGGLSVRETEALARKAPNLSAGKSKGGRPPRVKDTDTQALESDLSSVLGLDVSIDHRGSTGTLTITYATLEQLDDLCNRLTRGI
# Variants of: B1
# Assay: one-hybrid fitness for binding NBS DNA (the Noc-binding site; scaled: cognate 1, non-cognate 0); higher = stronger binding
# Settings: with NBS DNA site
# Summary of the method: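 Pre- and post-selection plasmids were Illumina-sequenced, three replicate libraries were pooled, and any variant with under 10 reads was removed. The libraries were Caulobacter ParB with four specificity codons randomised, selected in E. coli USO through a HIS3 reporter whose site is 19 bp from the promoter. Cells grew 48 hours at 37°C on M9 without histidine, with 0.1 mM IPTG and 5 mM 3-AT. Fitness is the log change in variant-to-wild-type read ratio, rescaled against cognate and non-cognate.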
row,Variant,one-hybrid fitness for binding NBS DNA
1,PPAE,≤ 0.2
2,FVAC,≤ 0.2
3,PTYE,≤ 0.2
4,SNWT,≤ 0.2
5,RYET,≤ 0.2
6,QPVR,0.377
7,LLLN,≤ 0.2
8,TTHD,≤ 0.2
9,QCST,0.553
10,ASCL,≤ 0.2
11,YWRN,≤ 0.2
12,DLYM,≤ 0.2
13,QPEY,≤ 0.2
14,GWVR,≤ 0.2
15,RKMG,≤ 0.2
16,RESL,≤ 0.2
17,IRAF,≤ 0.2
18,QHVT,0.327
19,RTMK,≤ 0.2
20,TPTF,≤ 0.2
21,YLSD,≤ 0.2
22,QPPK,≤ 0.2
23,YWVL,≤ 0.2
24,AFHR,≤ 0.2
25,ASMR,≤ 0.2
26,QTCD,≤ 0.2

row,Variant,one-hybrid fitness for binding NBS DNA
1,ECMP,≤ 0.2
2,CWKR,0.206
3,HLHF,≤ 0.2
4,HLIV,≤ 0.2
5,RPTL,≤ 0.2
6,FKAA,≤ 0.2
7,DLYS,≤ 0.2
8,GLGL,≤ 0.2
9,AIMG,≤ 0.2
10,RREM,≤ 0.2
11,YLEY,≤ 0.2
12,STQM,≤ 0.2
13,PQPR,≤ 0.2
14,ISCY,≤ 0.2
15,GDWL,≤ 0.2
16,LAEP,≤ 0.2
17,CTTG,≤ 0.2
18,GQIS,≤ 0.2
19,ENRG,≤ 0.2
20,TGQR,≤ 0.2
21,SHEK,≤ 0.2
22,QKGD,≤ 0.2
23,FGNC,≤ 0.2
24,SLTK,≤ 0.2
25,QFSK,≤ 0.2
26,QYNF,≤ 0.2

row,Variant,one-hybrid fitness for binding NBS DNA
1,VTVE,≤ 0.2
2,LVSF,≤ 0.2
3,APIL,≤ 0.2
4,CQRM,≤ 0.2
5,VQSC,≤ 0.2
6,PHAL,≤ 0.2
7,NISL,≤ 0.2
8,IAHF,≤ 0.2
9,FATD,≤ 0.2
10,DLRY,≤ 0.2
11,FGMR,≤ 0.2
12,RPQE,≤ 0.2
13,GTLL,≤ 0.2
14,CKRT,≤ 0.2
15,TWRC,≤ 0.2
16,QGPQ,≤ 0.2
17,SAYS,≤ 0.2
18,DGLF,≤ 0.2
19,RWQK,≤ 0.2
20,TPIL,≤ 0.2
21,SANP,≤ 0.2
22,PNAH,≤ 0.2
23,RANE,≤ 0.2
24,AAAW,≤ 0.2
25,GLPF,≤ 0.2
26,HKTR,≤ 0.2

row,Variant,one-hybrid fitness for binding NBS DNA
1,KSMI,≤ 0.2
2,FGTM,≤ 0.2
3,RMEP,≤ 0.2
4,GSRV,≤ 0.2
5,NELV,≤ 0.2
6,KLFE,≤ 0.2
7,TCSV,≤ 0.2
8,AYAM,≤ 0.2
9,GCSS,≤ 0.2
10,PPSF,≤ 0.2
11,KRKA,0.552
12,LISM,≤ 0.2
13,NPKY,≤ 0.2
14,GMPT,≤ 0.2
15,PYGG,≤ 0.2
16,CRHA,≤ 0.2
17,QVFY,≤ 0.2
18,HCEG,≤ 0.2
19,NVNR,≤ 0.2
20,PACR,≤ 0.2
21,IRHF,≤ 0.2
22,HRHP,≤ 0.2
23,LYWE,≤ 0.2
24,KADC,≤ 0.2
25,HEKD,≤ 0.2
26,AGGQ,≤ 0.2

row,Variant,one-hybrid fitness for binding NBS DNA
1,PDNW,≤ 0.2
2,KNPS,≤ 0.2
3,GVPG,≤ 0.2
4,HRHT,≤ 0.2
5,TTLI,≤ 0.2
6,DFLP,≤ 0.2
7,QTES,0.317
8,KERS,≤ 0.2
9,ASEG,≤ 0.2
10,NIGW,≤ 0.2
11,KRFK,≤ 0.2
12,GSWG,≤ 0.2
13,NQTS,≤ 0.2
14,KCKK,≤ 0.2
15,MSLT,≤ 0.2
16,CRHR,0.23
17,WMIA,≤ 0.2
18,YNSC,≤ 0.2
19,DNVS,≤ 0.2
20,WLNT,≤ 0.2
21,LDES,≤ 0.2
22,NVLT,≤ 0.2
23,VYTT,≤ 0.2
24,NLHH,≤ 0.2
25,YDYI,≤ 0.2
26,QMFS,0.251

row,Variant,one-hybrid fitness for binding NBS DNA
1,PRHA,≤ 0.2
2,IKVF,≤ 0.2
3,PNTC,≤ 0.2
4,LSSR,≤ 0.2
5,PQWW,≤ 0.2
6,SVEG,≤ 0.2
7,SNAT,≤ 0.2
8,GFTP,≤ 0.2
9,DHPI,≤ 0.2
10,QCVT,0.428
11,KCSF,≤ 0.2
12,ATHW,≤ 0.2
13,SEWR,≤ 0.2
14,EICA,≤ 0.2
15,QIKC,0.239
16,NKWR,≤ 0.2
17,NMST,≤ 0.2
18,IPTS,≤ 0.2
19,HKTW,≤ 0.2
20,PSRS,≤ 0.2
21,TWKE,≤ 0.2
22,SPGY,≤ 0.2
23,YHHW,≤ 0.2
